GI50 and TGI data for 1 molecule are collected here from PubChem BioAssay (NCI).

This assay concerns NCI-H322M lung. Description: NCI anticancer screen, dose series, 48 h.

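Five compound concentrations were applied to cells in 96-well plates for 48 hours; endpoints were derived by simple linear interpolation of the resulting dose-response curve. Abbreviation: GI50, concentration required for 50% inhibition of growth. TGI is the concentration that stops growth completely.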

With `COc1cc2cc(Oc3ccc(NC(=O)c4cccc(C(F)(F)F)c4)cc3)c(C)nc2cc1OCCN1CCCCC1`, the GI50 was 25.2 µM and the TGI stood at 72.2 µM.
